From PubChem BioAssay AID488969 (Vanderbilt High Throughput Screening Facility, 2010) come the findings set out here.

Each structure is given as a SMILES string. Over roughly 110,000 compounds, “z-score” has its median near -0.1; the highest 2% begin near 2. This is one part of the list.

For this experiment, the target named is Metabotropic glutamate receptor 8 (Rattus norvegicus) (UniProt P70579). Description: mGluR8 Gi/Go-coupled signaling modulation – cell-based, rat, thallium flux, HTS, primary screen (AID 488969). The settings on record: HEK293 rat mGluR8, GIRK (G protein-gated inwardly rectifying potassium channel) thallium flux, FluoZin2; at 10 µM; stronger effect = higher value; submaximal glutamate (EC20) added with thallium.
Chain of UniProt P70579 (P70579 whole entry, looked up): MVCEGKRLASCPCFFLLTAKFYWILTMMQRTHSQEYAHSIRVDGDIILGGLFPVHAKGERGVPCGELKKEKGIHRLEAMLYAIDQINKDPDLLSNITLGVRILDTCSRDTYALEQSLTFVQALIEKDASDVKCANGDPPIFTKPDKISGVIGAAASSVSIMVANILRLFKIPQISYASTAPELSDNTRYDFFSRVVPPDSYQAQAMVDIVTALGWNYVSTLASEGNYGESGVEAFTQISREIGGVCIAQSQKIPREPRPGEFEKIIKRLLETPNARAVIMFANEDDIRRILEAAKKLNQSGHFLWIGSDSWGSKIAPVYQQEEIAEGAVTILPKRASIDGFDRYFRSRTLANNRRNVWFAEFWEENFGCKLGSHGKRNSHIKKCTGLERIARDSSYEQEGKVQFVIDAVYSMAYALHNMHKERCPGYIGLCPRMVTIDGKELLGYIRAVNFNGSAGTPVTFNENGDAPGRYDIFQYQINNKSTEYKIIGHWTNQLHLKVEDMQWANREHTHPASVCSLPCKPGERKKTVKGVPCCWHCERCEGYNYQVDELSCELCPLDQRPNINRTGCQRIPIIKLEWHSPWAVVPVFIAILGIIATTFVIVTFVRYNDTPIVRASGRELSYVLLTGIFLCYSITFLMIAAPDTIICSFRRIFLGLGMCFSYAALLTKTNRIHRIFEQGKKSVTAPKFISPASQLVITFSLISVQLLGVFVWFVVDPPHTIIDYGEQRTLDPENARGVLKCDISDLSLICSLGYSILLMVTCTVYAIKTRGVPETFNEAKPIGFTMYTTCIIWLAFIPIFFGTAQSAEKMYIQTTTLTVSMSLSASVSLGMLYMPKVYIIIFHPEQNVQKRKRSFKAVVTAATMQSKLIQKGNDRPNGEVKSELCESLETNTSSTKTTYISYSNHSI
Regarding `CCOc1ccc(-n2c(C)nnc2SCC(=O)N(CC)CC)cc1`, the z-score stood at 0.0695. `COc1cccc(C2SCC(=O)N2c2ccc(Cl)cc2)c1OC` (configuration not stated): the z-score turned out to be 0.269.

As to `CCOC(=O)CNC(=O)C1(c2ccccc2)CCCC1`, the z-score was determined as 0.107. Molecule `COc1ccc(NC(=O)Cn2ncc(Cl)c(Cl)c2=O)cc1S(=O)(=O)N1CCOCC1` registered a z-score of 0.141. On to `Nc1c(C(=O)Nc2ccc(S(=O)(=O)N3CCCC3)cc2)sc2nc3cc4c(cc3cc12)CCC4`, for which the z-score was -0.132. `Cc1ccc2nc(-c3ccc(Br)o3)oc(=O)c2c1` gave a z-score of -0.0466. The value for `Cc1ccc(C(=O)Nc2cc3c(oc2=O)CCCC3=O)cc1` was -0.0458. Take `CS(=O)(=O)n1nc(-c2ccc(Cl)cc2)nc1SCc1ccccc1`: the z-score was -0.0463.

`CCCC(=O)NCc1cc(-c2nn(C)c(=O)c3ccccc23)ccc1C` yielded a z-score of -0.113. For `COc1ccc(CC(=O)Nc2ccc(S(=O)(=O)NCC3CCCO3)cc2)cc1` (configuration not stated), the z-score is 0.0963.

`Oc1c(C=Nc2cccc3nsnc23)ccc2ccccc12` registered a z-score of -0.703. Regarding `Cc1ccc(C)c(NC(=O)c2ccc(S(=O)(=O)C(F)F)cc2)c1`, the z-score is -0.276.

As for `CCOC(=O)C1CCCN(c2c(Nc3cccc(C)c3)c(=O)c2=O)C1` (configuration not stated), the z-score is -0.269.

With `O=C1C(Cl)=C(NCC2CCCO2)C(=O)N1CCc1ccccc1` (configuration not stated), the z-score amounted to 0.0285.

Take `CC(=O)c1cc(-c2ccccc2)n(CC(=O)NCc2cccs2)c1C`: the z-score was determined as 0.0485.

The molecule `CCN1C(=O)CC(N2CCN(c3ccc(C(=O)c4ccccc4)cc3)CC2)C1=O` (configuration not stated) registered a z-score of -0.153. Regarding `CCCOC(=O)Nc1nc2ccccc2o1`, the z-score is -0.00547. Regarding `CCOC(=O)N1CCN(C(=O)CSc2nc3c(cnn3-c3ccccc3)c(=O)[nH]2)CC1`, the z-score is -0.376. As for `O=C1CC(O)(c2ccccc2)C(c2ccccc2)=C1c1ccccc1` (configuration not stated), the z-score was -0.112. The result for `CCCCN(CCCC)CCCNC(=O)CC1Oc2ccc(C)cc2NC1=O` (configuration not stated) reads 1.11; that for `Cc1cc2c(cc1C)C(c1ccccc1Br)CC(=O)N2` (configuration not stated), 0.617; that for `COc1cc(/C=N/NC(=O)CCn2cnc(-c3ccccc3)c2-c2ccccc2)ccc1O`, -0.819. Consider `Cc1nn(Cc2ccc(Cl)cc2Cl)c(C)c1NC(=O)NC12CC3CC(CC(C3)C1)C2`, for which the z-score is -0.166. The molecule `COc1ccc(CNn2c(-c3cccc(C)c3)nc3ccccc3c2=O)cc1OC` registered a z-score of -0.12.

The molecule `Cc1[nH]c2ccccc2c1/C=C/c1nc2ccccc2c(=O)n1-c1ccc([N+](=O)[O-])cc1` displayed a z-score of -0.603. The value for `Cc1ccc(/C=C/C(=O)N2CCN(Cc3ccccc3)CC2)o1` was -0.286; that for `NC(=O)C1(N2CCCCC2)CCN(C(=S)Nc2ccc(Cl)cc2)CC1` was 0.0327; that for `CC(C)c1ccc(Nc2nc(NCc3ccco3)nc(N3CCOCC3)n2)cc1` was -0.278. On to `CN1/C(=C/C(=O)C2CCC2)Sc2ccccc21`, for which the z-score is 0.401.

For `CN1C(=O)C(O)(CC(=O)c2ccncc2)c2ccccc21` (configuration not stated), the z-score was -0.00178. With `Cc1cc(C)n(C(=O)COc2ccc(Cl)cc2Cl)n1`, the z-score is -0.331. The value for `COc1ccccc1C(=O)NC(=Nc1nc2ccccc2o1)NC(=O)c1ccccc1OC` was -0.544. The value for `CC(C)/C=N/NC(=O)c1ccc(Cl)cc1` was -0.254; that for `CNC(=O)/C(C#N)=C/c1c(N2CC(C)OC(C)C2)nc2ccccn2c1=O` (configuration not stated) was -0.492.

Molecule `Cc1ccc(S(=O)(=O)NC(=O)c2cc(C)n(CCCN3CCOCC3)c2C)cc1` gave a z-score of 0.135. `COc1ccc(-c2nnc3ccc(SCC(=O)Nc4nc5ccc(C)cc5s4)nn23)cc1OC` registered a z-score of -0.172. As for `CCN(CC)C(=O)CC1(c2ccccc2OC)CCOC(C(C)C)C1` (configuration not stated), the z-score is -0.162. Molecule `Cc1onc(COc2ccccc2O)c1Br` displayed a z-score of 0.0389. The value for `COC(=O)c1n[nH]nc1-c1ccccc1` was -0.18; that for `COc1ccc(CN/C(C)=C(/C#N)C(N)=O)cc1OC` was 0.858; that for `O=C(Nc1cccc(Cl)c1)Nc1ccc2c(c1)OCO2` was -0.0319.

Turning to `Cc1ccc(-c2csc(N3CCC(C(N)=O)(N4CCCCC4)CC3)n2)cc1`, the z-score was 0.000968.

In turn, `COc1ccc(NC(=O)Nc2ncccc2C)cc1` returned a z-score of -0.216. The result for `CCOc1ccc(NC(=O)CCCN2C(=S)NC(C)(C)CC2C)cc1` (configuration not stated) reads -0.466; that for `C(=N\Nc1ccccc1)/c1ccc(N2CCOCC2)cc1`, 0.117. Take `CC1=NN(S(=O)(=O)c2ccc(F)cc2)C(=O)c2ccccc2O1`: the z-score was 0.439. For `COc1ccccc1NC(=O)/C(=C/c1cccc([N+](=O)[O-])c1)c1ccccc1`, the z-score was -0.304. On to `COC(=O)Cn1cc(C(=O)c2cccs2)c2ccccc21`, for which the z-score is -0.534.

`O=C(Nc1cccc2ccccc12)/C(Cl)=C/c1ccccc1` returned a z-score of -0.243. The value for `O=C(NCCCN1CCOCC1)C(=O)N/N=C/c1ccccc1` was 0.000949; that for `O=C(C1COc2ccccc2O1)N1CCCC1` (configuration not stated) was 0.642; that for `O=C(Nc1nnc(SCC(=O)N2CCCc3ccccc32)s1)c1ccccc1` was -0.222. Turning to `CCCCn1c(SCC(N)=O)nnc1-c1ccco1`, the z-score is -0.00653. As to `Cn1c(SCc2c(F)cccc2Cl)nnc1-c1cnccn1`, the z-score came to 0.554. `COC(=O)c1cc2ccsc2n1CC(=O)NCC1CCCO1` (configuration not stated) registered a z-score of -0.0449. The molecule `O=C(Cc1ccccc1)NNC(=O)c1cccs1` showed a z-score of 0.27. `Oc1ccc2ccccc2c1CNn1cnnc1` gave a z-score of 0.00272.

`Cc1ccc(C(C(=O)NC2CCCC2)N(C(=O)CCC(=O)Nc2cc(C)on2)c2ccccc2)cc1` (configuration not stated) returned a z-score of -0.462. In turn, `COC(=O)CN(c1ccccc1OC)S(=O)(=O)c1ccccc1` had a z-score of -0.197.

As to `Cc1cn(C(=O)c2ccccc2)c(=S)n1-c1ccc(Cl)cc1`, the z-score is -0.162.

Turning to `COc1cccc(CNC(=O)c2nnn(-c3ccc(OC(F)(F)F)cc3)c2N)c1`, the z-score came out at 0.0253. The value for `COc1ccc(-n2nc(C(=O)NCC(=O)N3CCN(C)CC3)c3ccccc3c2=O)cc1OC` was -0.00987; that for `Cc1ccc(NNS(=O)(=O)c2ccc(C)cc2)cc1` was -0.0783. `Cc1ccc(NC(=O)CSc2nc(NS(=O)(=O)c3ccc(C)cc3)cc(=O)[nH]2)cc1` returned a z-score of -0.139.

`CCC(=O)Nc1cc(NC(=O)CSc2nnc(C(C)C)n2CC)ccc1C` returned a z-score of 0.0357. On to `O=c1c([N+](=O)[O-])cc(C(F)(F)F)cn1Cc1c(Cl)cccc1Cl`, for which the z-score worked out at 0.162. The result for `Cn1c(SCC(=O)NCc2ccccc2)nnc1-c1ccc(NC(=O)CCc2ccccc2)cc1` reads 0.00419; that for `O=C(NCCCn1ccnc1)C(=O)NCc1ccccc1`, -0.00246; that for `CN(NC(=O)c1ccc(Cl)cc1)c1nc(-c2ccccc2)nnc1C(F)(F)F`, -0.162. In turn, `Oc1ccc(C2Nc3cccc4cccc(c34)N2)c(O)c1` returned a z-score of -0.102. `O=C(CSc1nnc(Cc2ccccc2)n1Cc1ccco1)NC12CC3CC(CC(C3)C1)C2` returned a z-score of 0.781. `O=C(NCCC1=CCCCC1)C1CCCN(S(=O)(=O)c2ccccc2)C1` (configuration not stated) returned a z-score of -0.232.
